The record followed here is PubChem BioAssay AID488969 (Vanderbilt High Throughput Screening Facility, 2010).

Whole data set: some 110,000 compounds, median “z-score” near -0.1, cut for the highest 2% near 2. The list shows a part of the results. Activity calls are given as the source filed them.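 How the source made its calls: active means z-score in the third read window above 3 or below -3; inactive means the rest.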

This assay concerns the target Metabotropic glutamate receptor 8 (Rattus norvegicus) (UniProt P70579). Put plainly: rat mGluR8 modulators via GIRK flux, primary screen, cell-based, thallium flux, HTS (AID 488969). The conditions noted are these: HEK293 rat mGluR8, GIRK (G protein-gated inwardly rectifying potassium channel) thallium flux, FluoZin2; at 10 µM; stronger effect = higher value; submaximal glutamate (EC20) added with thallium.
Sequence of UniProt P70579 (P70579 whole entry, looked up): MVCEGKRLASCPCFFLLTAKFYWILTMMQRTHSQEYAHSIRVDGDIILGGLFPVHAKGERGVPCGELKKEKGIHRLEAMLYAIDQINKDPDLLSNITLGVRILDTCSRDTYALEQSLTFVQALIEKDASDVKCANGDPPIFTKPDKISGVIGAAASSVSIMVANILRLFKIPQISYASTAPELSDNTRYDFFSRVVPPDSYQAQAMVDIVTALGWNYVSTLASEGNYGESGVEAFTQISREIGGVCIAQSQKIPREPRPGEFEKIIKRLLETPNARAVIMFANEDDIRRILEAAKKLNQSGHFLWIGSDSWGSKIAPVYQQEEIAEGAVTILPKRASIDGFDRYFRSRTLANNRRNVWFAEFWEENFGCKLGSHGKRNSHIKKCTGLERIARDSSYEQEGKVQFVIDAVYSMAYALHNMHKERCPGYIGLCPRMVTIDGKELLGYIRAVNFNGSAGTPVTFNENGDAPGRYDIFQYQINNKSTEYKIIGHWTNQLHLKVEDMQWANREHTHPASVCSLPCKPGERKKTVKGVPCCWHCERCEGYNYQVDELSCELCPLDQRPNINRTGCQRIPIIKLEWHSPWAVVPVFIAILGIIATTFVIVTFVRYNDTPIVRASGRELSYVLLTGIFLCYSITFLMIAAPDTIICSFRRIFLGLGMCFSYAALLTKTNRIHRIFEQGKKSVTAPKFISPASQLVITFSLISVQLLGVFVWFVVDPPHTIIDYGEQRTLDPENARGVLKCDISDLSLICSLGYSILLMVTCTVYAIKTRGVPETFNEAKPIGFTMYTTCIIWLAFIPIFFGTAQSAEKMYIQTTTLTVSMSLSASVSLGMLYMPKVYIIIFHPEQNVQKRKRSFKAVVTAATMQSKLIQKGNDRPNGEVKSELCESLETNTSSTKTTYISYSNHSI
Regarding `Cc1nn(Cc2ccc(Br)cc2)c(C)c1NC(=O)c1nn(C)cc1Cl`, the z-score was -0.296.

Consider `C/C(=C1/C(=O)N(c2ccc([N+](=O)[O-])cc2)N=C1c1ccccc1)N(C)C`, for which the z-score is -0.0791.

On to `CC1(NC(=O)c2cc(S(=O)(=O)N3CCCCC3)ccc2Cl)CCS(=O)(=O)C1` (stereo not drawn), for which the z-score is -0.0681.

As for `CCn1cc(/C=N\NC(=O)c2ccc3c(c2)c(C)c(C)n3Cc2ccccc2)c(C)n1`, the z-score was -0.848.

As to `Cc1cc(C)nc(NC(=O)CSc2nnnn2-c2ccccc2)n1`, the z-score was 0.708.

Turning to `CCOc1ccc(Nc2nc(Cc3nnc(SCC(=O)NC4CCCC4)n3C)cs2)cc1`, the z-score was -0.424.

`CCOCC(=O)Nc1cccc(Br)c1`: the z-score was -0.00322.

Consider `N#C/C(=N\Nc1ccccc1F)C(=N)N1CCCCC1`, for which the z-score amounted to 0.0493.

On to `Cc1cccc(S(=O)(=O)c2c(N)n(-c3ccccc3)c3nc4ccccc4nc23)c1`, for which the z-score was -0.103.

On to `N=C(N)SCc1cccc2ccccc12`, for which the z-score is 0.125.

`Cc1ccc(C2CC2c2n[nH]c(=S)n2-c2ccc(Cl)cc2)cc1` (stereo not drawn) gave a z-score of 2.95.

As to `O=C(C1CCCCC1)N1CCN(c2ccccc2F)CC1`, the z-score stood at 0.184.

The compound `COC(=O)[C@H](CCSC)NC(=O)NCCC1=CCCCC1` yielded a z-score of 0.864.

Turning to `COc1cc(-c2nc(-c3ccccc3)c(-c3ccc(F)cc3)[nH]2)cc2c1OCO2`, the z-score is -0.0411.

In the case of `Cc1ccc(COn2c(-c3ccc(Cl)cc3)nc3ccc([N+](=O)[O-])cc32)cc1`, the z-score is -0.0457.

On to `Cc1nc(SCC(=O)NCCc2ccccc2)n[nH]1`, for which the z-score was -0.0848.

Turning to `Clc1cccc(/C(Cc2nc3ccccc3[nH]2)=N\Nc2ccccc2)c1`, the z-score was -0.0881.

For `CCNc1nc(NC(C)C)nc(SCCOc2ccc(C)cc2)n1`, the z-score is -0.957.

As for `CN(CCc1ccccn1)C(=O)Nc1ccc(Cl)cc1`, the z-score is 0.0615.

`Cc1ccc(OCC(=O)n2cnnc2N)c(C)c1` showed a z-score of 0.38.

Regarding `O=C(NC(=S)Nc1ccc(N2CCOCC2)c(Cl)c1)c1cncc(Br)c1`, the z-score was active: 7.69.

With `O=c1c(O)c(-c2cccs2)oc2ccccc12`, the z-score was active: 17.2.

Consider `Cc1ccc(Nc2nc(-c3sc(NC(=O)c4ccc([N+](=O)[O-])cc4)nc3C)cs2)cc1`, for which the z-score came out at 0.0842.

As for `O=C(NNC(=O)C1CCCO1)c1ccc(Cl)cc1` (stereo not drawn), the z-score stood at 0.119.

Consider `O=C(CSc1nc2ccc(Cl)cc2o1)NCc1ccc2c(c1)OCO2`, for which the z-score was 0.168.

Take `COC(=O)c1ccc(SC2CCCCC2)c([N+](=O)[O-])c1`: the z-score is -0.116.

With `Cc1c(C(=O)Nc2ccc(Br)cc2)cnn1C`, the z-score is -0.186.

Compound `Nc1ccc(-c2sc(N)nc2-c2ccccc2)cc1` had a z-score of 0.254.

The compound `CCn1c(C)c(C(C)=O)c(N2CCCCC2)nc1=S` returned a z-score of 0.791.

Turning to `O=C(Nc1cccc(C(=O)N2CCOCC2)c1)c1ncn[nH]1`, the z-score is -0.145.

Turning to `Cc1nn(C)cc1CNC(=O)c1cccc(Cl)c1`, the z-score is -0.0315.

As for `CN(CC(=O)O)S(=O)(=O)c1ccc(F)cc1`, the z-score amounted to 0.145.

For `COc1cccc(/C=N/NC(=O)c2[nH]nc3c2CCc2ccccc2-3)c1O`, the z-score was determined as 0.389.

`CC(C)CC(=O)NC(=S)Nc1cccc(NC(=O)c2ccccc2Cl)c1`: the z-score is -0.244.

As to `Cc1ccccc1Nc1nc(N)nc(COC(=O)C(NC(=O)c2ccco2)C(C)C)n1` (stereo not drawn), the z-score is -1.8.

Take `CCOc1cccc(-c2nc(C(N)=O)c3[nH]c(=O)n(-c4cccc(Cl)c4)c3n2)c1O`: the z-score was -2.19.

For `Cc1cccc(Cc2c(C)nc3c(C(=O)N4CCN(Cc5ccc6c(c5)OCO6)CC4)cnn3c2C)c1`, the z-score is -0.198.

In turn, `O=C(CC1SC(=Nc2ccccc2)N(CCCCO)C1=O)NCc1ccccc1` (stereo not drawn) gave a z-score of 0.00558.

`O=C1CCC(=O)N1CN(Cc1ccco1)CN1C(=O)CCC1=O`: the z-score was 1.32.

Take `C=C(c1ccc(O)cc1)c1ccc(O)cc1`: the z-score is -0.139.

For `Cc1cc(F)ccc1S(=O)(=O)Nc1c(C)n(C)n(-c2ccccc2)c1=O`, the z-score is -0.0341.

For the compound `CCOC(=O)NNC1CC(=O)N(c2ccccc2)C1=O` (stereo not drawn), the z-score is -0.474.

Regarding `S=c1nc(-c2ccc(Br)cc2)oc2c1CCCC2`, the z-score was active: 4.2.

`CCNC(=S)N/N=C/c1cc(Br)cc(Br)c1OC` registered a z-score of 0.524.

`CCOc1ccc2c(c1)OC(c1ccc(C)cc1)(C(F)(F)F)NC2=O` (stereo not drawn) registered a z-score of 0.1.

Take `CC1(C)C2CCC1(CS(=O)(=O)N1CCOCC1)C(=O)C2` (stereo not drawn): the z-score is -0.0543.

Consider `CCCCCCCCCCCCCCCC[n+]1ccc(/C=N/O)cc1`, for which the z-score was -0.57.

In turn, `CN(C)/C=C(/C(=O)c1ccc(Cl)cc1Cl)S(=O)(=O)c1ccc(Cl)cc1` came in with a z-score of 0.0336.

Consider `O=C(O)c1cccc(CSc2nc(-c3ccc(Cl)cc3)cc(C(F)(F)F)n2)c1`, for which the z-score was -0.523.

Compound `COc1ccc(Br)cc1-c1nc(C)c(C(C)=O)n1O` yielded a z-score of 0.0389.

As for `CSCCC1NC2(C(=O)Nc3c(Cl)cccc32)[C@@H]2C(=O)N(C3CCCC3)C(=O)[C@H]12` (stereo partly drawn), the z-score was -0.443.

Regarding `CC(C)Cn1nnc2c(=O)oc3ccccc3c21`, the z-score was -1.57.

The compound `C=CCn1c(CCC(=O)O)ccc1-c1ccc(OC)cc1` had a z-score of 0.0969.

For the compound `CCOc1ccc(NC(=O)CSc2nnc(Cn3cnc4ccccc43)n2C)cc1`, the z-score is -0.333.

`O=C(Cc1ccccc1)NC1CCN(C(=O)NCc2ccccc2)CC1` returned a z-score of 0.253.

For `COc1ccc(COn2c(=O)c(C)[n+]([O-])c3ccccc32)cc1OC`, the z-score is 0.292.

Regarding `CC(C)Oc1ccc(NC(=O)CCC(=O)O)cc1`, the z-score is -0.0457.

Turning to `Nc1nnc(SCC(=O)c2ccco2)s1`, the z-score is -0.0604.

Regarding `COc1cc(NC(=O)C2CCCO2)c(C(=O)O)cc1OC` (stereo not drawn), the z-score was -0.238.

As for `O=C(Nc1nnc(N2CCCCCC2)s1)c1cc(-c2ccc(Br)cc2)on1`, the z-score is -0.0797.

Compound `Cn1cnnc1SCC(=O)Nc1sc2c(c1C(N)=O)CCC2` returned a z-score of 0.737.

As for `Cc1ccc(SCCNS(=O)(=O)c2ccc3c(c2)OCCO3)cc1`, the z-score was -0.27.

As to `COc1cccc(C2=N/C(=C\N(C)C)C(=O)O2)c1`, the z-score is -0.0956.

`Cc1c(NC(=S)Nc2ccccc2C(F)(F)F)cccc1[N+](=O)[O-]` displayed a z-score of 0.111.

As for `COc1ccc(NC(=O)C(=O)NNC(=O)c2cccs2)c(OC)c1`, the z-score is active: 5.95.

Take `COC(=O)C1(CO)NC(c2cccs2)C2C(=O)N(c3ccccc3)C(=O)C21` (stereo not drawn): the z-score is -0.22.

Take `Cc1noc(C)c1S(=O)(=O)N(CC(=O)N1CCc2ccccc21)c1ccc(C(C)C)cc1`: the z-score is -0.427.

With `CC1CCCC(C)N1CCCNC(=O)c1cc2c(=O)n(C)c3ccccc3c2n1C` (stereo not drawn), the z-score is 2.79.

Consider `O=C1CNC(=O)N1Cc1ccc(Br)cc1`, for which the z-score was found to be 0.0483.

On to `Cc1[nH]c2ccccc2c1C(=O)COC(=O)C1CCC(=O)N1` (stereo not drawn), for which the z-score was 0.0229.

`CC(C)C(=O)Nc1ccccc1N1CCN(S(C)(=O)=O)CC1`: the z-score is -0.374.

On to `Cc1n[nH]c(=O)nc1NCc1ccco1`, for which the z-score is -0.442.

In turn, `CCOC(=O)N1CCC(NC(=O)CCC(=O)N2CC(C)Oc3ccc(C)cc32)CC1` (stereo not drawn) returned a z-score of 0.0805.

Turning to `Oc1ccc(Br)cc1/C=N/N1CCN(Cc2ccccc2)CC1`, the z-score is -0.134.

Turning to `CNC(=S)SCCOc1ccc(C)cc1`, the z-score was active: 6.37.

For `COC(=O)Cn1c(C)nc2ccccc21`, the z-score is -0.49.

With `COc1cccc(-c2csc3nnc(SCC(=O)NCc4cccs4)n23)c1`, the z-score is -0.315.

Regarding `O=C(NC(=S)Nc1ccc(NC(=O)c2ccco2)cc1)c1ccccc1`, the z-score was -0.416.

Take `C=CCOc1ccccc1CNCc1cccnc1`: the z-score was -0.321.

Take `COc1ccccc1N1CCN(Cc2ccc(O)c3ncccc23)CC1`: the z-score was -0.0396.

On to `COc1ccc(C2CC(=O)n3c(nc4ccccc43)S2)cc1OC` (stereo not drawn), for which the z-score was -0.117.

`Oc1c(C(c2cccs2)N2CCC3(CC2)OCCO3)sc2ncnn12` (stereo not drawn) came in with a z-score of 0.13.

`CCN(CC)c1ccc(NC(=O)c2cccnc2)c(C)c1`: the z-score was 0.991.

The compound `Cc1ccc(S(=O)(=O)Cn2nnnc2C(C(C)C)N2CCSCC2)cc1` (stereo not drawn) registered a z-score of 0.905.

In turn, `CC(=O)ON1C(C)(C)Cc2noc(N)c2C1(C)C` displayed a z-score of 0.801.

Consider `CS(=O)(=O)N(CC(=O)N1CCCCCC1)c1ccc(Br)cc1`, for which the z-score is -0.166.

With `CC(C)[C@H](NC(=O)c1cccc(S(=O)(=O)N2CCCC2)c1)c1nc2ccccc2[nH]1`, the z-score came to 0.167.

As for `C/C(=N/NC(=O)c1ccoc1C)c1ccc(N2CCOCC2)cc1`, the z-score was -0.148.

On to `COc1ccc(Nc2ncc(C(=O)N3CCN(c4ccccc4OC)CC3)c3ccccc23)cc1`, for which the z-score is -0.66.

Turning to `COc1cccc(/C=N/NC(=O)c2c(-c3ccccc3)noc2C)c1O`, the z-score was -0.212.

With `O=C(/C=C/c1ccco1)NC(=S)Nc1cc(-c2nc3ccccc3s2)ccc1Cl`, the z-score was -0.258.

Regarding `COn1c(=O)c(=O)n(OC)c2ccccc21`, the z-score was -0.144.

As to `CCCC(=O)Nc1ccc(NC(=O)c2ccccn2)cn1`, the z-score is -0.311.

Turning to `CCOC(=O)Cc1csc(NC(=O)c2sc3nc4c(C)cc(C)cc4cc3c2N)n1`, the z-score is -0.144.

Regarding `COc1ccc2cc(CCNC(=O)CC(C)(C)C)c(=O)[nH]c2c1`, the z-score amounted to 0.0363.

On to `COC(=O)c1cc(OC)c(OC)cc1NC(=S)N1CCN(Cc2ccccc2)CC1`, for which the z-score amounted to 0.237.

For `CCN(CC1COc2ccccc2O1)C(=S)Nc1ccccc1` (stereo not drawn), the z-score was -0.261.

In turn, `Cc1[nH]c2ccccc2c1C(=O)CSc1nc2ccccc2c(=O)n1CCCN1CCOCC1` showed a z-score of 0.383.

For `O=C(C1CCN(S(=O)(=O)c2ccc(Cl)cc2)CC1)N1CCOCC1`, the z-score is -0.486.

`COc1ccc(OCc2nc(N)nc(Nc3ccccc3OC)n2)cc1` yielded a z-score of 0.138.

`CCOc1cc(/C=C2\C(=O)ON=C2C)ccc1OCc1ccccc1`: the z-score is -0.275.

In the case of `CCC(CC)C(=O)Nc1cc(OC)c(OC)cc1C(=O)O`, the z-score is -0.741.

Take `O=C(Cc1ccccc1)NNC1CC(=O)N(c2ccccc2)C1=O` (stereo not drawn): the z-score was -0.0913.

Turning to `O=C1N/C(=C\c2ccccc2)C(O)=C1C=NCc1ccccc1`, the z-score was -0.0728.

`COc1cc2c(cc1NC(=O)COC(=O)c1ccc(C(C)(C)C)cc1)oc1ccccc12` had a z-score of 0.126.

`Cc1cc(C)c(C)c(S(=O)(=O)N2C(=S)NC(=O)C2C(C)C)c1C` (stereo not drawn) registered a z-score of 0.083.

`O=C(Nc1cccc([N+](=O)[O-])c1)c1ccc2c(c1)OCO2`: the z-score was -0.205.

`COc1ccc(NS(=O)(=O)Cc2ccccc2)cc1OC`: the z-score was -0.0457.

With `Cc1c(Cl)cccc1NC(=O)c1ccc(OCC(=O)NCc2ccccc2)cc1`, the z-score is -0.37.

As to `COC(=O)c1ccccc1NC(=S)N(Cc1ccc2c(c1)OCO2)Cc1cc2cccc(C)c2[nH]c1=O`, the z-score is -0.261.

On to `CCOC(=O)c1cc2n(c1C)-c1ccccc1C2=O`, for which the z-score is -0.128.

Turning to `COC(=O)C1=C(CN2CCSCC2)NC(=O)NC1c1cc(C)ccc1C` (stereo not drawn), the z-score is -0.254.

Regarding `O=c1cc(CSc2ccc(S(=O)(=O)N3CCCCC3)cn2)nc2sccn12`, the z-score is -0.415.
